Source: PubChem BioAssay (NCATS)
This list was built around the results that the source calls inconclusive (neither active nor inactive); the mix of calls is not that of the screen. For some of these results: Where the call is inconclusive, the potency comes from a doubtful curve fit. Calls of active or inactive are those of the source. Unless noted, calls follow the shape of the dose curve; as a rule, active = well fitted curve in either direction with a large enough effect (not every such curve was filed as active); inconclusive = small, poorly fitted or top-dose-only effect, or another doubt; inactive = flat fitted curve, though single readings scatter.

Experiments:
[1] = NFAT Signaling Pathway (AID 444); details: Jurkat NFAT-bla M1, carbachol, beta-lactamase ratio, 5 h; at 17.2 µM (top of the series) unless noted;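 also: carbachol stimulus at about its EC50 of 1 µM final; % is scaled to controls: 0 for no effect and ±100 for the full control effect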
Outline: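 Jurkat cells with NFAT-driven β-lactamase reporter and co-expressed M1 receptor, stimulated with carbachol (final 1 uM, ~EC50), compound titration, 5 h at 37 °C. CCF4 loaded 1 h at RT; 460/530 nm ratio gave %activity and AC50.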

[2] = Stat Signaling Pathway (AID 446); details: ME-180 SIE beta-lactamase reporter, IL-6 stimulated, 5 h;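 also: ME-180 cervical cancer cells given 40 pM IL-6 alongside compound; SIE-controlled beta-lactamase reporter measured as 460/530 nm FRET emission ratio; top concentration of the series differs between compounds; % is scaled to controls: 0 for no effect and ±100 for the full control effect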
Outline: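 Overnight-plated ME-180 cells bearing a STAT Inducible Element beta-lactamase reporter; 5 h co-exposure to compound and 40 pM IL-6; values normalized to 300 pM IL-6 and 125 nM JAK inhibitor controls.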

[3] = target: Mitogen-activated protein kinase 10 (Mus musculus) (UniProt Q61831); experiment: JNK3 AlphaScreen Assay (AID 530); details: JNK3 lysate, c-Jun phosphorylation; activity change, negative = inhibition: at 57.1 µM (top of the series);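 also: kinase came from lysate of stimulated human HepG2 cells; signal reports phosphorylation of biotinylated GST-cJun 1-79 at Ser73 with 10 µM ATP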; also: potency is read from the fitted curve at half-maximal effect; as to activity change, negative = inhibition: % is scaled to controls: 0 for no effect and ±100 for the full control effect
Outline: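 Activity was read by AlphaScreen after JNK3-containing HepG2 lysate (cytokine pre-activated) phosphorylated biotinylated GST-cJun with 10 uM ATP at room temperature. Phospho-Ser73 cJun antibody with Protein-A acceptor beads provided detection.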

[4] = target: 3',5'-cyclic-AMP phosphodiesterase 4B (Homo sapiens) (UniProt Q07343); experiment: qHTS Assay for Inhibitors of PDE-IV (AID 607; active = well fitted activation curve with a large enough effect in the main read-out, with a control signal flat, not every such curve was filed as active; inconclusive = small, poorly fitted or top-dose-only effect, or effect the other way, or a change in a side signal; also: potency is read from the fitted curve at half-maximal effect; as to activation (PDE inhibition): % of control where 0% means no effect); details: HEK293 ACTOne CNG channel cells, membrane potential fluorescence; activation (PDE inhibition): at 22.9 µM (top of the series)
Chain of UniProt Q07343 (Q07343 whole entry, looked up): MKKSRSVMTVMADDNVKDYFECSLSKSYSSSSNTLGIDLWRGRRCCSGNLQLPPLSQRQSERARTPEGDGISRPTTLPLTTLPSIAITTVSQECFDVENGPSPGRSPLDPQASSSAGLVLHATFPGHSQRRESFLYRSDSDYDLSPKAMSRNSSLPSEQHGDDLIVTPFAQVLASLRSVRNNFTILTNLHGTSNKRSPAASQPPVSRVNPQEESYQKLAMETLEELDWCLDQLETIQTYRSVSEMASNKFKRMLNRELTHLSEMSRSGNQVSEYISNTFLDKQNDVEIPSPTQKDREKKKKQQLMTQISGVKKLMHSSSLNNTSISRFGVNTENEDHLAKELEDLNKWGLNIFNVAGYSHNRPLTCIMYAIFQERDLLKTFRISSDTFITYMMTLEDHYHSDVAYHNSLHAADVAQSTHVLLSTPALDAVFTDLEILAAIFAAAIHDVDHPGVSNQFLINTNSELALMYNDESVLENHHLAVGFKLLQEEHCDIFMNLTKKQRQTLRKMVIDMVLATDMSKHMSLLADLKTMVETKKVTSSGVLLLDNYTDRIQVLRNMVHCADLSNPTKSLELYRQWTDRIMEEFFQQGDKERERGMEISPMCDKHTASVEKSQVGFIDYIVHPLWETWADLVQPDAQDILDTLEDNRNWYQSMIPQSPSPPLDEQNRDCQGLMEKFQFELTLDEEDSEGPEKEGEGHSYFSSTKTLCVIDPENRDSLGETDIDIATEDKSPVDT
Outline: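 Live HEK293 cells with a modified cyclic nucleotide-gated (CNG) channel report intracellular cAMP via membrane-potential dye fluorescence (ex 535/em 590 nm). Endogenous PDE-IV was targeted. Compounds were tested at up to 22.9 uM final; RO 20-1724 100 uM served as control.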

[5] = target: Ubiquitin carboxyl-terminal hydrolase 1 (Homo sapiens) (UniProt O94782); experiment: Inhibitors of USP1/UAF1: Pilot qHTS (AID 504865; active = well fitted curve in the direction sought with a large enough effect; inconclusive = small, poorly fitted or top-dose-only effect, or another doubt; inactive = no such curve, though single readings can be large; an effect the other way counts as inactive or inconclusive; also: potency is read from the fitted curve at half-maximal effect;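 also: rhodamine fluorescence freed from ubiquitin-rhodamine substrate followed over time; nearly all actives have a fitted effect of over 35% in size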; as to activity change, negative = inhibition: top concentration of the series differs between compounds; % is scaled to controls: 0 for no effect and ±100 for the full control effect); details: purified USP1/UAF1, Ub-rhodamine cleavage fluorescence; series mostly up to 54.9 µM
Chain of UniProt O94782 (O94782 whole entry, looked up): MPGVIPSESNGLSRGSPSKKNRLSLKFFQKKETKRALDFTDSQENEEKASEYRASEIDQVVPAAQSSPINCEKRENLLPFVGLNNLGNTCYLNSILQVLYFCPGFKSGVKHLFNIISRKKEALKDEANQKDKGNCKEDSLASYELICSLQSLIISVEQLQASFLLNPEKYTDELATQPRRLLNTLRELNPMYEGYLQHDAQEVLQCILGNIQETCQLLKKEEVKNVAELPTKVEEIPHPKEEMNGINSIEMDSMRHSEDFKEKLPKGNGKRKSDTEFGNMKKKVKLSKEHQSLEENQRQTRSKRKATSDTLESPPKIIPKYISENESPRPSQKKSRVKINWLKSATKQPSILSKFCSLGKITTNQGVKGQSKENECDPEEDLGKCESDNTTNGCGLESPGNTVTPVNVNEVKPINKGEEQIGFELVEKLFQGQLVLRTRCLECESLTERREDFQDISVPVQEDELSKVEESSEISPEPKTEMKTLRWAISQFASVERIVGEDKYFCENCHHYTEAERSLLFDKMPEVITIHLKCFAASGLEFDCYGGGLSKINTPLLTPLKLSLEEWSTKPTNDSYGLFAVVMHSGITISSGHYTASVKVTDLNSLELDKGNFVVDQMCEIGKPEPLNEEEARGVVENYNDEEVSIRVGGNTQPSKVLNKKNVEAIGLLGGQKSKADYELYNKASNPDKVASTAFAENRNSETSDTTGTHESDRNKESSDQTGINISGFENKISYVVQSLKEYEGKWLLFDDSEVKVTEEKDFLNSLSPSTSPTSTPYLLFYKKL
Outline: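 USP1/UAF1 complex at 1 nM preincubated 15 min at room temperature with compound, then Ub-Rho substrate added at 150 nM final. Fluorescence (480/540 nm) read kinetically in 50 mM HEPES pH 7.8, 0.5 mM EDTA, 1 mM TCEP, 0.1 mg/ml BSA, 0.01% Tween-20.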

[6] = qHTS Assay for Identification of Small Molecule Agonists for Hypoxia Response Element Signaling Pathway (AID 914; active = well fitted activation curve with a large enough effect in the signal ratio, with a control signal flat, not every such curve was filed as active; inconclusive = small, poorly fitted or top-dose-only effect, or effect the other way, or a change in a side signal; the % refers to the signal ratio; also: potency is read from the fitted curve at half-maximal effect); details: ME-180 (cervical carcinoma) HRE-bla reporter, beta-lactamase ratio, CoCl2, 17 h; activation: stronger effect = higher value
Outline: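 HRE-bla ME-180 assay for agonist-like enhancement of an EC50 CoCl2 stimulus: 17 h at 37 degrees Celsius, CCF4 for 2.5 h, ratiometric 460/530 nm signal converted to %Activity and fitted to AC50.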

[7] = target: Glucocorticoid receptor (Homo sapiens) (UniProt P04150); experiment: GR-GFP Redistribution (AID 450;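 active = compounds whose dose series gives a full or clear partial fitted curve of increased nuclear translocation; inconclusive = weak partial curve or effect only at the top dose; inactive = no dose-dependent translocation response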; also: potency is read from the fitted curve at half-maximal effect); details: U2OS GR-GFP nuclear translocation, laser cytometry, 2 h
Chain of UniProt P04150 (P04150 whole entry, looked up): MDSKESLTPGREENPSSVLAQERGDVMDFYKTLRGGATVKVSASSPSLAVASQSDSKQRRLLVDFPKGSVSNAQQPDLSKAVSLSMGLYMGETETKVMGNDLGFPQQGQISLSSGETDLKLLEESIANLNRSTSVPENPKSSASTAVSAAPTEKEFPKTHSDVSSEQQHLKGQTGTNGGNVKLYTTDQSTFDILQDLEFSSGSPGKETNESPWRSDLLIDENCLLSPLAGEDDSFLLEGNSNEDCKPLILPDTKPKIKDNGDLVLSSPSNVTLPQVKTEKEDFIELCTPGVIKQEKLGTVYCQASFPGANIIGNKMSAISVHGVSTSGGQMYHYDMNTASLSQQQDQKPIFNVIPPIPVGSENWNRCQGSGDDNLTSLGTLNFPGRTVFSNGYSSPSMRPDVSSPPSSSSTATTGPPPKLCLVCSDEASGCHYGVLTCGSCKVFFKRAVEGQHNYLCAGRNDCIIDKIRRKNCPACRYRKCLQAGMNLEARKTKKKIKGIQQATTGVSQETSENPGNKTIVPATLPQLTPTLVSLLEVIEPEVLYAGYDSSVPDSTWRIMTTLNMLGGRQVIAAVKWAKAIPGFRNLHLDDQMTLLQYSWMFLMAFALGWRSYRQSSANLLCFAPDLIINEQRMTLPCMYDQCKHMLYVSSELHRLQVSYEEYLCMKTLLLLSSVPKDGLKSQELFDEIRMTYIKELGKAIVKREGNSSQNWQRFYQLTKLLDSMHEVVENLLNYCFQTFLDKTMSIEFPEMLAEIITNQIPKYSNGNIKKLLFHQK

[8] = S16 Schwann cell PMP22 intronic element beta-lactamase assay (AID 624044; calls by dose curve;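 also: 0% = DMSO and -100% = potassium clavulanate positive control; nearly all actives have a fitted effect of over 15% in size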); details: S16 rat Schwann cells, PMP22 element beta-lactamase FRET, 24 h; ratio activity, negative = inhibition: at 38.3 µM (top of the series) unless noted
Outline: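 Beta-lactamase reporter under a PMP22 intronic regulatory element in stable S16 rat Schwann cells; 24 h compound exposure. 460 nm blue signal normalized between DMSO (0%) and potassium clavulanate, with 535 nm FRET tracking viability; curves classed by r2 and response.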

7G8 = experiment: qHTS profiling for inhibitors of Plasmodium falciparum proliferation (AID 504749; active = well fitted curve in the direction sought with a large enough effect; inconclusive = small, poorly fitted or top-dose-only effect, or another doubt; inactive = no such curve, though single readings can be large; an effect the other way counts as inactive or inconclusive; also: nearly all actives have a fitted effect of over 60% in size; also: potency is read from the fitted curve at half-maximal effect;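 as to activity, negative = inhibition: 0% = DMSO vehicle and full inhibition = artemisinin control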); details: P. falciparum in erythrocytes, SYBR Green DNA, 72 h; series mostly up to 28.7 µM
Outline: (§1)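 Each compound contacts P. falciparum-infected red blood cells for 72 h at 37 C; lysis buffer (Tris, EDTA, saponin, Triton X, SYBR Green I) is added and fluorescence measured next morning; values normalized to controls.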

AA1029 = experiment: as above; details: P. falciparum in erythrocytes, SYBR Green DNA, 72 h; series mostly up to 28.7 µM
Outline: as §1

C2A = experiment: as above; details: P. falciparum in erythrocytes, SYBR Green DNA, 72 h; series mostly up to 28.7 µM
Outline: as §1

CP192 = experiment: as above; details: P. falciparum in erythrocytes, SYBR Green DNA, 72 h; activity, negative = inhibition: at 28.7 µM (top of the series)
Outline: as §1

CP252 = experiment: as above; details: P. falciparum in erythrocytes, SYBR Green DNA, 72 h; series mostly up to 28.7 µM
Outline: as §1

CP262 = experiment: as above; details: P. falciparum in erythrocytes, SYBR Green DNA, 72 h; series mostly up to 28.7 µM
Outline: as §1

CP297 = experiment: as above; details: P. falciparum in erythrocytes, SYBR Green DNA, 72 h; activity, negative = inhibition: at 12.8 µM (top of the series) unless noted
Outline: as §1

CP329 = experiment: as above; details: P. falciparum in erythrocytes, SYBR Green DNA, 72 h; series mostly up to 28.7 µM
Outline: as §1

DIV17 = experiment: as above; details: P. falciparum in erythrocytes, SYBR Green DNA, 72 h; activity, negative = inhibition: at 28.7 µM (top of the series) unless noted
Outline: as §1

ICS = experiment: as above; details: P. falciparum in erythrocytes, SYBR Green DNA, 72 h; series mostly up to 28.7 µM
Outline: as §1

TAB165 = experiment: as above; details: P. falciparum in erythrocytes, SYBR Green DNA, 72 h; series mostly up to 28.7 µM
Outline: as §1

[9] = target: Cytochrome P450 2D6 (Homo sapiens) (UniProt P10635); experiment: qHTS Assay for Inhibitors and Substrates of Cytochrome P450 2D6 (AID 891; active = well fitted curve in the direction sought with a large enough effect; inconclusive = small, poorly fitted or top-dose-only effect, or another doubt; inactive = no such curve, though single readings can be large; an effect the other way counts as inactive or inconclusive;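 also: luciferin methyl ether substrate demethylated by CYP2D6 with NADPH regeneration; potency is read from the fitted curve at half-maximal effect; nearly all actives have a fitted effect of over 60% in size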); details: recombinant CYP2D6, luciferin-ME EGE luminescence; activity change, negative = inhibition: at 57.1 µM (top of the series)
Chain of UniProt P10635 (P10635 whole entry, looked up): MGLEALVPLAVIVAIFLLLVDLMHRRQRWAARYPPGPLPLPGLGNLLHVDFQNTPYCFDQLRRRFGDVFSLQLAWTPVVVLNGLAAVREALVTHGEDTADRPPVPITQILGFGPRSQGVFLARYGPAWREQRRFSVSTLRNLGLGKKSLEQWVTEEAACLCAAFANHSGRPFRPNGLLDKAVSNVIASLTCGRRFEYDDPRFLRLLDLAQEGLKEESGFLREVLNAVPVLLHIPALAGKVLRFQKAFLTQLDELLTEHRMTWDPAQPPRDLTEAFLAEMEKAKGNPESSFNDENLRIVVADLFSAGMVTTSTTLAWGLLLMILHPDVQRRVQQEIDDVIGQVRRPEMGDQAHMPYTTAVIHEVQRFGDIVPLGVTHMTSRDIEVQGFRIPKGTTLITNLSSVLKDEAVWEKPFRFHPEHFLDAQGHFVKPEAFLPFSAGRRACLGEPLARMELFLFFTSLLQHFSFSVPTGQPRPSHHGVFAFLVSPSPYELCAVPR
Outline: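 Luminescent read-out of luciferin formed by 5 nM human CYP2D6 demethylating 30 uM Luciferin-ME EGE (Km level) over 60 min at room temperature after NADPH regeneration addition. Data normalized to full inhibition by 1.43 uM quinidine.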

[10] = target: Cytochrome P450 3A4 (Homo sapiens) (UniProt P08684); experiment: qHTS Assay for Activators of Cytochrome P450 3A4 (AID 885; active = well fitted curve in the direction sought with a large enough effect; inconclusive = small, poorly fitted or top-dose-only effect, or another doubt; inactive = no such curve, though single readings can be large; an effect the other way counts as inactive or inconclusive; also: potency is read from the fitted curve at half-maximal effect; nearly all actives have a fitted effect of over 65% in size); details: recombinant CYP3A4, Luciferin-PPXE luminescence, 60 min; series mostly up to 57.1 µM
Chain of UniProt P08684 (P08684 whole entry, looked up): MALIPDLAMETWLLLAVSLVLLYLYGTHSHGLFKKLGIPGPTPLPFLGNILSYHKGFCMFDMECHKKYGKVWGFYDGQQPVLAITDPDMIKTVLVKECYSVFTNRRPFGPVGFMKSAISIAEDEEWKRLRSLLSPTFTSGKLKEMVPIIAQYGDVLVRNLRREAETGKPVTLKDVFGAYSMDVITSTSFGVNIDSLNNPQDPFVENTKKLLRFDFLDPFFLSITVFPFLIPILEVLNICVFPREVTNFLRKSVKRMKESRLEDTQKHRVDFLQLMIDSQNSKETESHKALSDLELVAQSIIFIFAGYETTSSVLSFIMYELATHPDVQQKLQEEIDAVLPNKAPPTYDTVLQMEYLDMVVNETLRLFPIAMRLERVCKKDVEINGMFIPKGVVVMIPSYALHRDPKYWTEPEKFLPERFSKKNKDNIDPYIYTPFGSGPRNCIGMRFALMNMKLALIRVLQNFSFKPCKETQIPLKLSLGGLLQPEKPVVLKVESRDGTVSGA
Outline: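 Using 20nM recombinant human CYP3A4 in potassium phosphate (200mM), substrate Luciferin-PPXE at 25uM, luminescent luciferin detection followed a 60-min RT NADPH reaction; data scaled to 57 uM ketoconazole.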

[11] = qHTS Assay for Identification of Small Molecule Agonists for Thrombopoietin (TPO) Signaling Pathway (AID 917; active = well fitted curve in the direction sought with a large enough effect; inconclusive = small, poorly fitted or top-dose-only effect, or another doubt; inactive = no such curve, though single readings can be large; an effect the other way counts as inactive or inconclusive; also: potency is read from the fitted curve at half-maximal effect); details: TPO signaling pathway reporter cells, agonist qHTS, stimulated with TPO at its EC50; activity, positive = activation: at 38.5 µM (top of the series)
Outline: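 Stimulation at the TPO EC50 (26 pM final) was used to detect activators. Ba/F3 mouse cells bearing human TPO receptor and a luciferase reporter under the Glycoprotein IIb promoter were exposed to compounds for 24 hrs at 37 C.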

[12] = target: Muscarinic acetylcholine receptor M1 (Rattus norvegicus) (UniProt P08482); experiment: qHTS Assay for Antagonists of Acetylcholine Muscarinic M1 Receptor: Measurement of IP-One Response (AID 944; active = well fitted curve in the direction sought with a large enough effect; inconclusive = small, poorly fitted or top-dose-only effect, or another doubt; inactive = no such curve, though single readings can be large; an effect the other way counts as inactive or inconclusive; also: potency is read from the fitted curve at half-maximal effect; nearly all actives have a fitted effect of over 75% in size); details: CHO-M1 cells, IP-One HTRF, antagonist mode; series mostly up to 46.1 µM
Chain of UniProt P08482 (P08482 whole entry, looked up): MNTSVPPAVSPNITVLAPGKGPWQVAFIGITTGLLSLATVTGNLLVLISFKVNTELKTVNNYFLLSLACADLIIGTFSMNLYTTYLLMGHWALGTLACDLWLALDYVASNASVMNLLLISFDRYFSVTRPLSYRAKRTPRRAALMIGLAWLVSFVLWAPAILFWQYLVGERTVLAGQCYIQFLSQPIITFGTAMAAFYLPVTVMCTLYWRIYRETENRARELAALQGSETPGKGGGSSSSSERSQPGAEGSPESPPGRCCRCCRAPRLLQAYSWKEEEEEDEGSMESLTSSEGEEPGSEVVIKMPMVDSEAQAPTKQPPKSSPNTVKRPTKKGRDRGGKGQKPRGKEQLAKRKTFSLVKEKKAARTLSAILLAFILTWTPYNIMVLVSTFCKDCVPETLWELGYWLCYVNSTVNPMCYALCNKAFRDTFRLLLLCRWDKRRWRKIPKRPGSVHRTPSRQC

[13] = at 7.69 µM (top of the series) unless noted
Tags tell the direction and shape of the fitted curve or compound fluorescence and quenching.

For `COc1ccc(-c2nc3cnc(N(C)C)nc3n(Cc3cccs3)c2=O)cc1`, the activity change, negative = inhibition [1] was inconclusive: 36.6% [inhibitor] [at 7.69 µM], the activity, negative = inhibition [2, 13] was inconclusive: 35.7% [activator] and the Potency [3] was inconclusive: 0.631 µM [activator, full curve, poor fit]. The Potency [4] was inconclusive: 12.6 µM [activator, single point] and the Potency [5] was “inactive”.
For `Cc1noc(C)c1-c1ccc2ncnc(NCc3ccccc3)c2c1`, the activity change, negative = inhibition [1] was inconclusive: -101% [inhibitor] [at 7.69 µM], the activity, negative = inhibition [2, 13] was inconclusive: -62.2% [inhibitor] and the Potency [4] was inconclusive: 10 µM [activator, partial curve]. For the same compound, the Potency [6] was active: 3.16 µM and the Potency [5] was inconclusive: 56.2 µM [inhibitor, partial curve, poor fit].
With `CCOc1ccc(C2=Nn3c(nnc3-c3ccccn3)SC2)cc1` the activity change, negative = inhibition [1] was inconclusive: -45.1% [inhibitor] and the activity, negative = inhibition [2, 13] was inactive: 3.43% [at 17.2 µM].
With `O=C(CCC(=O)CCN1CCCCC1)CCN1CCCCC1` the activity change, negative = inhibition [1] was active: -120% and the activity, negative = inhibition [2, 13] was inactive: 1.96% [at 17.2 µM].
For `Cc1ccc(SCc2[nH]nc3c2C(c2ccc(C)o2)C(C#N)=C(N)O3)cc1` (centres undefined), the activity change, negative = inhibition [1] was inactive: -18.9% and the activity, negative = inhibition [2, 13] was inconclusive: -45.4% [inhibitor] [at 17.2 µM].
For `O=C(c1ccncc1)N1CCC2(CC1)CN(c1ccccn1)C2`, the activity change, negative = inhibition [1] was inconclusive: -55.6% [inhibitor] [at 7.69 µM] and the activity, negative = inhibition [2, 13] was inconclusive: 34.9% [activator].
For `Cc1cc(NC(CC(C)C)C(=O)O)nc(Cc2ccccc2)n1` (centres undefined), the activity change, negative = inhibition [1] was inactive: 7.49% and the activity, negative = inhibition [2, 13] was inactive: 5.49% [at 17.2 µM].
In the case of `Cc1ccccc1N1C(=O)C2ON(c3ccccc3)C(c3ccncc3)C2C1=O` (centres undefined), the activity change, negative = inhibition [1] is reported as inactive: 18.5% and the activity, negative = inhibition [2, 13] is reported as inactive: 1.29% [at 17.2 µM].
For `NC(=O)c1ncn([C@@H]2O[C@@H](CO)[C@@H](O)[C@H]2O)n1`, the activity change, negative = inhibition [1] was inactive: 17% [at 38 µM] and the activity, negative = inhibition [2, 13] was inactive: -14.5% [at 38 µM].
In the case of `Cc1ccc(N2C(=O)C3ON(c4ccccc4)C(c4ccncc4)C3C2=O)cc1` (centres undefined), the activity change, negative = inhibition [1] is reported as inactive: 9.45%, the activity, negative = inhibition [2, 13] is reported as inactive: -10.5% [at 17.2 µM] and the Potency [7] is reported as inconclusive: 25.3 µM [single point].
For `O=C(O)Cc1cccnc1`, the activity change, negative = inhibition [1] was inactive: 15.8% [at 7.69 µM], the activity, negative = inhibition [2, 13] was inactive: 3.03% and the activity change, negative = inhibition [3] was inactive: 1.8% [at 11.4 µM].
With `CN1CCCC[C@@H]1CCN1c2ccccc2Sc2ccc(S(C)=O)cc21` (some centres undefined) the activity change, negative = inhibition [1] was inconclusive: -37.2% [inhibitor], the activity, negative = inhibition ([2]; at 7.69 µM (top of the series)) was inactive: 0.0805% and the activity, negative = inhibition ([2]; at 17.2 µM (top of the series)) was inactive: -1.79%. The Potency [4] was “inactive”, the Potency [8] was “inactive” and the Potency (7G8) was inconclusive: 17.8 µM [inhibitor, single point]. The Potency (AA1029) was “inactive”, the Potency (C2A) was “inactive” and the Potency (CP192) was “inactive”. For the same compound, the Potency (CP252) was “inactive”, the Potency (CP262) was “inactive” and the Potency (CP297) was inconclusive: 0.0048 µM [activator, full curve]. For the same compound, the Potency (CP329) was “inactive”, the Potency (DIV17) was “inactive” and the Potency (ICS) was inconclusive: 15.8 µM [inhibitor, single point]. For the same compound, the Potency (TAB165) was “inactive”.
For `COc1ccc(CC[N@+]2(C)COc3cc4oc(=O)cc(C)c4cc3C2)cc1OC`, the activity change, negative = inhibition [1] was inconclusive: -37.7% [inhibitor] [at 7.69 µM], the activity, negative = inhibition [2, 13] was inactive: 5.96% and the Potency [3] was inconclusive: 0.158 µM [activator, full curve].
For `COCC(=O)N1CCC2(CCN(Cc3ccccc3OC)CC2)CC1`, the activity change, negative = inhibition [1] was inconclusive: -33.6% [inhibitor] [at 7.69 µM] and the activity, negative = inhibition [2, 13] was inactive: -4.34%.
For `CC1=c2c(oc3cc(O)c(Nc4c(C)cc(O)cc4O)c(C)c23)=CC(=O)C1=Nc1c(C)cc(O)cc1O`, the activity change, negative = inhibition [1] was inactive: -22.3% [at 7.69 µM], the activity, negative = inhibition [2, 13] was inconclusive: -38.6% [inhibitor] and the Potency [3] was inconclusive: 3.16 µM [inhibitor, single point]. For the same compound, the Potency [9] was inconclusive: 2.51 µM [inhibitor, partial curve].
For `Cc1cnc(CNc2ncnc3ccc(-c4c(C)noc4C)cc23)cn1`, the activity change, negative = inhibition [1] was inconclusive: -87.2% [inhibitor] [at 7.69 µM], the activity, negative = inhibition [2, 13] was inconclusive: -49.2% [inhibitor] and the Potency [3] was inconclusive: 20 µM [inhibitor, single point]. For the same compound, the Potency [6] was active: 3.98 µM.
For `COc1cc2nc(N3CC=[N+](C(=O)c4ccco4)CC3)nc(N)c2cc1OC`, the activity change, negative = inhibition [1] was inconclusive: -104% [inhibitor] [at 38 µM], the activity, negative = inhibition [2, 13] was inconclusive: -44.9% [inhibitor] [at 38 µM] and the Potency [10] was inconclusive: 6.31 µM [activator, full curve]. The Potency [11] was inconclusive: 20 µM [inhibitor, single point] and the Potency [12] was inconclusive: 28.2 µM [inhibitor, partial curve, poor fit].
